# In the supplement of paper PMC8728848:
# Some of the results follow.
# B1: Mincle (Homo sapiens), Q9ULY5 (protein)
# chain: MNSSKSSETQCTERGCFSSQMFLWTVAGIPILFLSACFITRCVVTFRIFQTCDEKKFQLPENFTELSCYNYGSGSVKNCCPLNWEYFQSSCYFFSTDTISWALSLKNCSAMGAHLVVINSQEEQEFLSYKKPKMREFFIGLSDQVVEGQWQWVDGTPLTKSLSFWDVGEPNNIATLEDCATMRDSSNPRQNWNDVTCFLNYFRICEMVGINPLNKGKSL
# Legend:
# Assay in all cases: glycan array binding signal (z-score within array); higher = stronger binding
# Details in all cases: glycan notation: IUPAC condensed, linker removed
# [1] = target: Gal3S(b1-4)Glc6S
# How it was run: (§1)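 Arrays were curated from the Consortium for Functional Glycomics database, 3228 in total, and kept only where the protein sequence was available. Binding is expressed as a within-array Z-score. This score was averaged across arrays of the same protein sequence at different concentrations or buffers and across linkers, and negative values can be read as non-binding.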
# [2] = target: Gal3S(b1-4)GlcNAc
# How it was run: as §1
# [3] = target: Gal3S(b1-4)GlcNAc6S
# How it was run: as §1
# [4] = target: Gal3S(b1-4)[Fuc(a1-3)]Glc
# How it was run: as §1
# [5] = target: Gal3S(b1-4)[Fuc(a1-3)]Glc6S
# How it was run: as §1
# [6] = target: Gal3S4S(b1-4)GlcNAc
# How it was run: as §1
# [7] = target: Gal3S6S(b1-4)GlcNAc
# How it was run: as §1
# [8] = target: Gal3S6S(b1-4)GlcNAc6S
# How it was run: as §1
# [9] = target: Gal4S(b1-4)GlcNAc
# How it was run: as §1
# [10] = target: Gal4S6S(b1-4)GlcNAc
# How it was run: as §1
# [11] = target: Gal6S(b1-4)Glc
# How it was run: as §1
# [12] = target: Gal6S(b1-4)Glc6S
# How it was run: as §1
# [13] = target: Gal6S(b1-4)GlcNAc
# How it was run: as §1
# [14] = target: Gal6S(b1-4)GlcNAc6S
# How it was run: as §1
# [15] = target: GalNAc(a1-3)Gal
# How it was run: as §1
# [16] = target: GalNAc(a1-3)GalNAc
# How it was run: as §1
# [17] = target: GalNAc(a1-3)GalNAc(a1-3)Gal(a1-4)Gal(b1-4)GlcNAc
# How it was run: as §1
# [18] = target: GalNAc(b1-3)Gal
# How it was run: as §1
# [19] = target: GalNAc(b1-3)Gal(a1-4)Gal(b1-4)GlcNAc
# How it was run: as §1
# [20] = target: GalNAc(b1-3)Gal(a1-4)Gal(b1-4)GlcNAc(b1-3)Gal(b1-4)Glc
# How it was run: as §1
# [21] = target: GalNAc(b1-3)Gal(a1-6)Gal(b1-4)Glc
# How it was run: as §1
# [22] = target: GalNAc(b1-3)GalNAc
# How it was run: as §1
# [23] = target: GalNAc(b1-4)GlcNAc
# How it was run: as §1
# [24] = target: GalNAc(b1-4)GlcNAc(b1-2)Man(a1-3)[GalNAc(b1-4)GlcNAc(b1-2)Man(a1-6)]Man(b1-4)GlcNAc(b1-4)GlcNAc
# How it was run: as §1
# [25] = target: Glc(a1-4)Glc
# How it was run: as §1
# [26] = target: Glc(a1-6)Glc(a1-6)Glc
# How it was run: as §1
# [27] = target: Glc(b1-4)Glc
# How it was run: as §1
# [28] = target: Glc(b1-6)Glc
# How it was run: as §1
# [29] = target: GlcA(b1-3)Gal
# How it was run: as §1
# [30] = target: GlcA(b1-3)GlcNAc
# How it was run: as §1
# [31] = target: GlcA(b1-6)Gal
# How it was run: as §1
# [32] = target: GlcNAc(a1-3)Gal(b1-4)GlcNAc
# How it was run: as §1
# [33] = target: GlcNAc(a1-4)Gal(b1-3)GlcNAc
# How it was run: as §1
# [34] = target: GlcNAc(a1-4)Gal(b1-4)GalNAc
# How it was run: as §1
# [35] = target: GlcNAc(a1-4)Gal(b1-4)GlcNAc
# How it was run: as §1
# [36] = target: GlcNAc(a1-4)Gal(b1-4)GlcNAc(b1-3)Gal(b1-4)Glc
# How it was run: as §1
# [37] = target: GlcNAc(a1-4)Gal(b1-4)GlcNAc(b1-3)Gal(b1-4)GlcNAc
# How it was run: as §1
# [38] = target: GlcNAc(a1-4)Gal(b1-4)GlcNAc(b1-3)Gal(b1-4)GlcNAc(b1-3)Gal(b1-4)GlcNAc
# How it was run: as §1
# [39] = target: GlcNAc(a1-4)Gal(b1-4)GlcNAc(b1-3)Gal(b1-4)[Fuc(a1-3)]GlcNAc(b1-3)Gal(b1-4)[Fuc(a1-3)]GlcNAc
# How it was run: as §1
# [40] = target: GlcNAc(a1-6)Gal(b1-4)GlcNAc
# How it was run: as §1
# [41] = target: GlcNAc(b1-2)Gal(b1-3)GalNAc
# How it was run: as §1
# [42] = target: GlcNAc(b1-2)Man(a1-3)[GlcNAc(b1-2)Man(a1-6)]Man(b1-4)GlcNAc(b1-4)GlcNAc
# How it was run: as §1
# [43] = target: GlcNAc(b1-2)Man(a1-3)[GlcNAc(b1-2)Man(a1-6)]Man(b1-4)GlcNAc(b1-4)[Fuc(a1-6)]GlcNAc
# How it was run: as §1
# [44] = target: GlcNAc(b1-2)[GlcNAc(b1-4)]Man(a1-3)[GlcNAc(b1-2)Man(a1-6)]Man(b1-4)GlcNAc(b1-4)GlcNAc
# How it was run: as §1
# [45] = target: GlcNAc(b1-3)Gal
# How it was run: as §1
binder,measurement,setting,value
B1,glycan array binding signal (z-score),[1],0.377
same,glycan array binding signal (z-score),[2],0.208
same,glycan array binding signal (z-score),[3],0.051
same,glycan array binding signal (z-score),[4],-0.146
same,glycan array binding signal (z-score),[5],0.358
same,glycan array binding signal (z-score),[6],0.794
same,glycan array binding signal (z-score),[7],0.034
same,glycan array binding signal (z-score),[8],1.38
same,glycan array binding signal (z-score),[9],0.598
same,glycan array binding signal (z-score),[10],0.101
same,glycan array binding signal (z-score),[11],0.256
same,glycan array binding signal (z-score),[12],-0.08
same,glycan array binding signal (z-score),[13],0.205
same,glycan array binding signal (z-score),[14],0.133
same,glycan array binding signal (z-score),[15],-0.323
same,glycan array binding signal (z-score),[16],-0.305
same,glycan array binding signal (z-score),[17],-0.357
same,glycan array binding signal (z-score),[18],-0.283
same,glycan array binding signal (z-score),[19],-0.512
same,glycan array binding signal (z-score),[20],-0.444
same,glycan array binding signal (z-score),[21],-0.249
same,glycan array binding signal (z-score),[22],-0.566
same,glycan array binding signal (z-score),[23],-0.353
same,glycan array binding signal (z-score),[24],-0.089
same,glycan array binding signal (z-score),[25],-0.235
same,glycan array binding signal (z-score),[26],-0.482
same,glycan array binding signal (z-score),[27],-0.501
same,glycan array binding signal (z-score),[28],-0.38
same,glycan array binding signal (z-score),[29],-0.432
same,glycan array binding signal (z-score),[30],-0.377
same,glycan array binding signal (z-score),[31],-0.485
same,glycan array binding signal (z-score),[32],-0.389
same,glycan array binding signal (z-score),[33],-0.019
same,glycan array binding signal (z-score),[34],-0.638
same,glycan array binding signal (z-score),[35],-0.088
same,glycan array binding signal (z-score),[36],-0.295
same,glycan array binding signal (z-score),[37],-0.34
same,glycan array binding signal (z-score),[38],0.955
same,glycan array binding signal (z-score),[39],1.44
same,glycan array binding signal (z-score),[40],-0.411
same,glycan array binding signal (z-score),[41],-0.485
same,glycan array binding signal (z-score),[42],1.47
same,glycan array binding signal (z-score),[43],0.845
same,glycan array binding signal (z-score),[44],-0.194
same,glycan array binding signal (z-score),[45],0.183
